Source: the supplement of paper PMC4604168 (melanoma cell lines)
The other results are listed elsewhere or left out. Repeats are few or missing, and single values can be far off.

tested on: SkMel28; test: cell count relative to DMSO control; melanoma cells; higher = more viable cells; settings: library dose: low library concentration; 72 h
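Also: cell number obtained by counting DAPI-stained nuclei in high-throughput microscope images with image analysis software, screen run in 1,536-well plates.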

Row | Structure (SMILES) | cell count
1 | C[C@]12O[C@H](C[C@]1(O)CO)n1c3ccccc3c3c4c(c5c6ccccc6n2c5c31)CNC4=O [Lestaurtinib] + OCc1c[nH]c2ccccc12 [Indole-3-carbinol] (first compound 0.004 µM, partner dose 0.8 µM) | 89.6%
2 | C[C@]12O[C@H](C[C@]1(O)CO)n1c3ccccc3c3c4c(c5c6ccccc6n2c5c31)CNC4=O [Lestaurtinib] + CO[C@H]1C[C@@H]2CC[C@@H](C)[C@@](O)(O2)C(=O)C(=O)N2CCCC[C@H]2C(=O)O[C@H]([C@H](C)C[C@@H]2CC[C@@H](OCCO)[C@H](OC)C2)CC(=O)[C@H](C)/C=C(\C)[C@@H](O)[C@@H](OC)C(=O)[C@H](C)C[C@H](C)/C=C/C=C/C=C/1C [everolimus] (first compound 0.004 µM, partner dose 0.02 µM) | 48.1%
3 | C[C@]12O[C@H](C[C@]1(O)CO)n1c3ccccc3c3c4c(c5c6ccccc6n2c5c31)CNC4=O [Lestaurtinib] + Cn1c(=O)n(-c2ccc(C(C)(C)C#N)cc2)c2c3cc(-c4cnc5ccccc5c4)ccc3ncc21 [NVP-BEZ235] (first compound 0.004 µM, partner dose 0.004 µM) | 88.5%
4 | C[C@]12O[C@H](C[C@]1(O)CO)n1c3ccccc3c3c4c(c5c6ccccc6n2c5c31)CNC4=O [Lestaurtinib] + Nc1ccn([C@@H]2O[C@H](CO)[C@@H](O)C2(F)F)c(=O)n1 [gemcitabine] (first compound 0.004 µM, partner dose 0.0004 µM) | 76.1%
5 | Cn1cc(C2=C(c3cn(C4CCN(Cc5ccccn5)CC4)c4ccccc34)C(=O)NC2=O)c2ccccc21 [Enzastaurin] + CO[C@H]1C[C@@H]2CC[C@@H](C)[C@@](O)(O2)C(=O)C(=O)N2CCCC[C@H]2C(=O)O[C@H]([C@H](C)C[C@@H]2CC[C@@H](OCCO)[C@H](OC)C2)CC(=O)[C@H](C)/C=C(\C)[C@@H](O)[C@@H](OC)C(=O)[C@H](C)C[C@H](C)/C=C/C=C/C=C/1C [everolimus] (first compound 0.8 µM, partner dose 0.02 µM) | 58.7%
6 | C[C@]12O[C@H](C[C@]1(O)CO)n1c3ccccc3c3c4c(c5c6ccccc6n2c5c31)CNC4=O [Lestaurtinib] + Nc1cccc2c1CN(C1CCC(=O)NC1=O)C2=O [lenalidomide] (first compound 0.004 µM, partner dose 1 µM) | 127%
7 | C[C@]12O[C@H](C[C@]1(O)CO)n1c3ccccc3c3c4c(c5c6ccccc6n2c5c31)CNC4=O [Lestaurtinib] + CN(c1ncccc1CNc1nc(Nc2ccc3c(c2)CC(=O)N3)ncc1C(F)(F)F)S(C)(=O)=O [PF562271] (first compound 0.004 µM, partner dose 0.08 µM) | 91%
8 | C[C@]12O[C@H](C[C@]1(O)CO)n1c3ccccc3c3c4c(c5c6ccccc6n2c5c31)CNC4=O [Lestaurtinib] + CC(=O)O[C@@]12CO[C@@H]1C[C@H](O)[C@@]1(C)C(=O)[C@H](O)C3=C(C)[C@@H](OC(=O)[C@H](O)[C@@H](NC(=O)OC(C)(C)C)c4ccccc4)C[C@@](O)([C@@H](OC(=O)c4ccccc4)[C@H]21)C3(C)C [Docetaxel] (first compound 0.004 µM, partner dose 0.0001 µM) | 86.2%
9 | C[As](C)SC[C@H](NC(=O)CC[C@H](N)C(=O)O)C(=O)NCC(=O)O [Darinaparsin] + O=C(Nc1ccccc1)c1cc([N+](=O)[O-])ccc1Cl [GW9662] (first compound 0.4 µM, partner dose 2 µM) | 87.5%
10 | C[As](C)SC[C@H](NC(=O)CC[C@H](N)C(=O)O)C(=O)NCC(=O)O [Darinaparsin] + Cc1cc(SCc2sc(-c3ccc(C(F)(F)F)c(F)c3)nc2C)ccc1OCC(=O)O [GW0742] (first compound 0.4 µM, partner dose 2 µM) | 111%
11 | C[C@]12O[C@H](C[C@]1(O)CO)n1c3ccccc3c3c4c(c5c6ccccc6n2c5c31)CNC4=O [Lestaurtinib] + CCCS(=O)(=O)Nc1ccc(F)c(C(=O)c2c[nH]c3ncc(Cl)cc23)c1F [PLX4720] (first compound 0.004 µM, partner dose 0.08 µM) | 96.5%
12 | C[C@]12O[C@H](C[C@]1(O)CO)n1c3ccccc3c3c4c(c5c6ccccc6n2c5c31)CNC4=O [Lestaurtinib] + O=C(O)[C@@H]1[O][Sb](=[O])([O][Sb]2(=[O])[O][C@H]([C@H](O)CO)[C@H](O)[C@H](C(=O)O)[O]2)[O][C@H]([C@H](O)CO)[C@@H]1O [stibogluconate] (first compound 0.004 µM, partner dose 2 µM) | 117%
13 | C[C@]12O[C@H](C[C@]1(O)CO)n1c3ccccc3c3c4c(c5c6ccccc6n2c5c31)CNC4=O [Lestaurtinib] + O=C(O)c1ccc2c(c1)nc(Nc1cccc(Cl)c1)c1ccncc12 [CX4945] (first compound 0.004 µM, partner dose 0.4 µM) | 96.4%
14 | C[As](C)SC[C@H](NC(=O)CC[C@H](N)C(=O)O)C(=O)NCC(=O)O [Darinaparsin] + O=C1NC(=O)/C(=C/c2ccc(-c3ccc(F)cc3O)o2)S1 [AS252424] (first compound 0.4 µM, partner dose 1 µM) | 96.3%
15 | C[C@]12O[C@H](C[C@]1(O)CO)n1c3ccccc3c3c4c(c5c6ccccc6n2c5c31)CNC4=O [Lestaurtinib] + CC(C)C[C@H](NC(=O)[C@H](Cc1ccccc1)NC(=O)c1cnccn1)B(O)O [Bortezomib] (first compound 0.004 µM, partner dose 0.001 µM) | 105%
16 | C[C@]12O[C@H](C[C@]1(O)CO)n1c3ccccc3c3c4c(c5c6ccccc6n2c5c31)CNC4=O [Lestaurtinib] + N.N.[Cl][Pt][Cl] [cisplatin] (first compound 0.004 µM, partner dose 1.6 µM) | 86.7%
17 | C[C@]12O[C@H](C[C@]1(O)CO)n1c3ccccc3c3c4c(c5c6ccccc6n2c5c31)CNC4=O [Lestaurtinib] + NC1(c2ccc(-c3nc4ccn5c(=O)[nH]nc5c4cc3-c3ccccc3)cc2)CCC1 [MK2206] (first compound 0.004 µM, partner dose 0.4 µM) | 71.4%
18 | C[C@]12O[C@H](C[C@]1(O)CO)n1c3ccccc3c3c4c(c5c6ccccc6n2c5c31)CNC4=O [Lestaurtinib] + C[C@]1(O)C[C@@H](c2nc(-c3ccc4ccc(-c5ccccc5)nc4c3)c3c(N)nccn32)C1 [OSI906] (first compound 0.004 µM, partner dose 0.4 µM) | 85.1%
19 | C[C@]12O[C@H](C[C@]1(O)CO)n1c3ccccc3c3c4c(c5c6ccccc6n2c5c31)CNC4=O [Lestaurtinib] + C=C(c1ccc(C(=O)O)cc1)c1cc2c(cc1C)C(C)(C)CCC2(C)C [Bexarotene] (first compound 0.004 µM, partner dose 2 µM) | 75.9%
20 | C[C@]12O[C@H](C[C@]1(O)CO)n1c3ccccc3c3c4c(c5c6ccccc6n2c5c31)CNC4=O [Lestaurtinib] + CN1CCN(c2ccc3nc(-c4c(N)c5c(F)cccc5[nH]c4=O)[nH]c3c2)CC1 [Dovitinib] (first compound 0.004 µM, partner dose 0.1 µM) | 101%
21 | C[C@]12O[C@H](C[C@]1(O)CO)n1c3ccccc3c3c4c(c5c6ccccc6n2c5c31)CNC4=O [Lestaurtinib] + CCCCCCCCc1ccc(CCC(N)(CO)CO)cc1 [fingolimod] (first compound 0.004 µM, partner dose 2 µM) | 83.5%
22 | C[C@]12O[C@H](C[C@]1(O)CO)n1c3ccccc3c3c4c(c5c6ccccc6n2c5c31)CNC4=O [Lestaurtinib] + CNC(=O)c1cc(Oc2ccc(NC(=O)Nc3ccc(Cl)c(C(F)(F)F)c3)cc2)ccn1 [sorafenib] (first compound 0.004 µM, partner dose 0.4 µM) | 111%
23 | N.N.[Cl][Pt][Cl] [cisplatin] + CO[C@H]1C[C@@H]2CC[C@@H](C)[C@@](O)(O2)C(=O)C(=O)N2CCCC[C@H]2C(=O)O[C@H]([C@H](C)C[C@@H]2CC[C@@H](OCCO)[C@H](OC)C2)CC(=O)[C@H](C)/C=C(\C)[C@@H](O)[C@@H](OC)C(=O)[C@H](C)C[C@H](C)/C=C/C=C/C=C/1C [everolimus] (first compound 1.6 µM, partner dose 0.02 µM) | 67.8%
24 | C[C@]12O[C@H](C[C@]1(O)CO)n1c3ccccc3c3c4c(c5c6ccccc6n2c5c31)CNC4=O [Lestaurtinib] + C=CCNC1=C2C[C@@H](C)C[C@H](OC)[C@H](O)[C@@H](C)/C=C(\C)[C@H](OC(N)=O)[C@@H](OC)/C=C\C=C(/C)C(=O)NC(=CC1=O)C2=O [Tanespimycin] (first compound 0.004 µM, partner dose 0.002 µM) | 126%
25 | C[C@]12O[C@H](C[C@]1(O)CO)n1c3ccccc3c3c4c(c5c6ccccc6n2c5c31)CNC4=O [Lestaurtinib] + COc1ccc(Cl)c(Nc2nc3ccccc3nc2NS(=O)(=O)c2cccc(NC(=O)C(C)(C)N)c2)c1 [XL147] (first compound 0.004 µM, partner dose 0.8 µM) | 95.3%
